# Laboratory results reported in PubChem BioAssay AID2451 (National Center for Advancing Translational Sciences (NCATS), 2010).
# Hit rate of the full screen: of about 290,000 compounds, about 2,100 (0.72%) were called active. Inconclusive means that the source gave no clear call. Such entries were picked first, then a sample of the others. Calls follow the shape of the dose curve; as a rule, active = well fitted inhibition curve with a large enough effect; inconclusive = small, poorly fitted or top-dose-only effect, or effect the other way; inactive = flat fitted curve, though single readings scatter. Where the call is inconclusive, the potency comes from a doubtful curve fit.
# Target: Fructose-bisphosphate aldolase (Giardia intestinalis (strain ATCC 50803 / WB clone C6)) (UniProt A8B2U2)
# Test: qHTS Assay for Inhibitors of Fructose-1,6-bisphosphate Aldolase from Giardia Lamblia; also: nearly all actives have a fitted effect of over 55% in size
# Details: purified Giardia FBPA; activity, negative = inhibition: at 59.6 µM (top of the series) unless noted
# Summary of the method: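 Giardia FBPA (40 nM reagent) was preincubated 10 min at RT with compound (up to 57.5 uM final), then substrate plus GAPDH/TPI/NAD/arsenate coupling system with diaphorase/resazurin was added; resorufin fluorescence (525/598 nm) was read after 20 min.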
# % is scaled to controls: 0 for no effect and ±100 for the full control effect; potency is read from the fitted curve at half-maximal effect; tags tell the direction and shape of the fitted curve.
# UniProt A8B2U2, sequence (A8B2U2 whole entry, looked up): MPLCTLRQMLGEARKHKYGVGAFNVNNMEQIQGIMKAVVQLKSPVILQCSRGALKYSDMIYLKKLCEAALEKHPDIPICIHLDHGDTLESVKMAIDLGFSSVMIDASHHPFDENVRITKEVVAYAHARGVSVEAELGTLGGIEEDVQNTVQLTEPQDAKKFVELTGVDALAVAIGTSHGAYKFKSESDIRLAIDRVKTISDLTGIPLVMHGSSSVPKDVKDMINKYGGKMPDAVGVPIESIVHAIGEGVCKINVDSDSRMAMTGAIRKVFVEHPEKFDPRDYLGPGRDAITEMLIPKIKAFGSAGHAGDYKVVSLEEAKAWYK
Structure (SMILES),"activity, negative = inhibition",Potency
COc1ccc(-c2nnc(SCc3ncc(-c4ccccc4)o3)o2)cc1,inactive: 22.1%,–
c1ccc(CN2CCN(CCOCCOc3ccc4c(c3)CCC4)CC2)cc1,–,"inconclusive: 17.7 µM [inhibitor, partial curve]"
N#CCC(N)=C(C#N)C#N,–,"inconclusive: 3.15 µM [inhibitor, partial curve]"
COc1ccc2nc3ccccc3nc2c1NC(=O)c1ccc(Cl)cc1Cl,–,"inconclusive: 14.1 µM [inhibitor, partial curve]"
CCC(=O)N1CCN(c2cc(C)ccc2C)CC1,inactive: -12.3%,–
COc1cc(CNCCc2ccc3c(c2)OCO3)ccc1O,–,"inconclusive: 14.1 µM [inhibitor, partial curve]"
CC(=O)c1n[nH]nc1Nc1nc(C)cc(C)n1,–,"inconclusive: 0.561 µM [inhibitor, full curve]"
Cc1ccccc1N1CCN(Cc2ccc3c(c2)OCO3)CC1,–,"inconclusive: 28.2 µM [inhibitor, partial curve]"
Cc1cc(C)c(C)c(OCCN2CCOCC2)c1,–,"inconclusive: 22.4 µM [inhibitor, single point]"
Cc1ccccc1S(=O)(=O)N(CC(O)CN1C(=O)NC(C)(C)C1=O)c1ccccc1 (stereo not given),inactive: -12.8%,–
O=C(c1ccccc1)c1ccc(OCCOCCN2CCN(Cc3ccccc3)CC2)cc1,–,"inconclusive: 12.6 µM [inhibitor, partial curve]"
CCOc1cccc(CNCCCSc2ncccn2)c1,–,"inconclusive: 35.5 µM [inhibitor, partial curve]"
O=C1/C(=C\c2ccco2)SC(=S)N1c1ccc(O)cc1,–,"inconclusive: 22.3 µM [inhibitor, partial curve]"
CC(=O)Oc1ccc(NC(=O)C2CCCCC2)c(C(=O)O)c1,–,"inconclusive: 17.7 µM [inhibitor, single point]"
COc1cccc2c(=O)n(CC(=O)Nc3ccc(F)cc3)ccc12,inactive: 1.15%,–
COc1ccc(OCC#CCN2CCCCCC2)cc1,–,"inconclusive: 19.9 µM [inhibitor, partial curve]"
O=C(CN1CCCCCC1)Nc1ccc(Oc2ccccc2)cc1,–,"inconclusive: 15.8 µM [inhibitor, partial curve]"
CC(=O)Oc1ccccc1C(=O)Nc1ncc([N+](=O)[O-])s1,–,"inconclusive: 14.1 µM [inhibitor, partial curve]"
CC(=O)C1=C(C)NC(SCC(=O)c2ccc(Cl)cc2)=C(C#N)C1c1ccco1 (stereo not given),–,"inconclusive: 19.9 µM [inhibitor, partial curve]"
O=C(CSC(=S)N1CCCCC1)N1N=CCC1c1ccccc1 (stereo not given),inactive: 0.976%,–
